# The list shows a part of the results. These are enrichments in a pooled selection; single values are uncertain.
# Test system: SARS-CoV-2 3CLpro (nsp5)
# Assay: substrate phage enrichment score (protease-eluted vs HEPES control, +1 offset) (ratio); higher = better cleaved substrate
# Conditions: selection round: 3; protease elution time: 0.5 h
# Protocol: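 Random heptapeptide substrate phage display (M13 pIII fusion, heptapeptide between an N-terminal biotinylated AviTag GLNDIFEAQKIEWHE and pIII; phages immobilised on streptavidin) eluted by cleavage with 50 nM protease in 20 mM HEPES at 37 °C. Selected phages were NGS sequenced, and the enrichment score is (reads in protease sample + 1)/(reads in HEPES blank-selection control + 1).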
row,Substance,substrate phage enrichment score
1,RCVDKPI,7
2,YCQGGSA,5
3,LESIPSR,1.21
4,IQPSWKS,7.38
5,SEGRNAA,> 23
6,AVKAKES,12
7,RNGLNVQ,6.17
8,TRGVPSK,3.14
9,SNAAAHH,0.48
10,GVRCTRT,> 33
11,KYITELQ,> 134
12,AVLQASG,23.5
13,SPHIGLC,5.5
14,SHCGTTT,> 27
15,YGYEHHG,> 35
16,LNAGDVK,0.846
17,ALEGQVK,> 55
18,PETVLMQ,> 21
19,AGSGEAG,2.18
20,EEVRHMP,> 22
21,AVEARNM,7.11
22,APLTGRC,> 25
23,ARGETTP,2.25
24,VSREILG,18.5

row,Substance,substrate phage enrichment score
1,FHASKPR,> 39
2,QAGPYGR,5.44
3,KSQLNID,11.7
4,MQQQPLG,0.136
5,SERFLHW,1.3
6,SQVILQA,37.3
7,VHLQARC,> 41
8,PPCVILQ,> 425
9,WQRVPSR,3.23
10,SSDCVIP,> 30
11,KRGTNLC,> 34
12,IRPSDAE,8
13,ERHIESH,3.8
14,LYFHGGS,2.42
15,FEAAHHH,1.05
16,TYTSEVQ,1.2
17,RPVVPEK,3.62
18,TRIPQPC,3.4
19,RFVEWRP,1.93
20,THWTGCW,2.1
21,ADSRKRP,> 51
22,RSYPKNP,> 40
23,RNFRSER,5.75
24,PPAAHHH,0.941

row,Substance,substrate phage enrichment score
1,PASAHHH,15
2,YQKHGSR,> 35
3,PAILQSG,> 27
4,ICIYDER,1.8
5,TWAAHHH,7.73
6,YEDWIRG,2.25
7,APVIHYD,5.25
8,KHYAKPV,2.4
9,TGIGATS,8.33
10,RATQSGR,10
11,AELQCNV,> 27
12,SPTDDLW,> 21
13,LICWCHR,13
14,VACLQAS,> 27
15,PKGDISR,1.82
16,HGRTPSD,0.235
17,YECTSKK,15.5
18,VHRSGPT,> 24
19,QKRTTLQ,> 336
20,LGPHIII,1.11
21,SRTPDEG,3.8
22,RHEATSD,3.5
23,RESRLQS,17
24,THTRGTS,> 23

row,Substance,substrate phage enrichment score
1,CAAAHNH,1.06
2,HRTTPLQ,11.5
3,LCIPNLQ,> 31
4,WHSTDKA,1.25
5,AAQIHTR,> 23
6,LSNYEDW,1.7
7,QRVPHLK,3.29
8,AQPVTSS,> 29
9,TEHHSTE,1.25
10,RDMNPKS,> 26
11,RVWKPHP,5
12,REPNFQG,2.62
13,QKYVLPT,3.33
14,FYGPKTV,1.38
15,SLAAHHH,2
16,SGRVKMT,11.8
17,PSAAAHH,0.696
18,LHVMLQC,> 22
19,PAAQDTR,2.25
20,ECCLQGG,> 21
21,RVELLEP,11.3
22,LESSGTQ,2.75
23,AHTEWRD,1.91
24,LLIRSCR,> 109

row,Substance,substrate phage enrichment score
1,AYLQGGS,5.25
2,LYFQCGS,1.82
3,SNSCGSA,26.3
4,DPAAHHH,0.782
5,HIYKLNS,1.5
6,CAAAHQQ,0.634
7,PALQSST,> 179
8,RHDTKPR,1.75
9,AKNSLWQ,> 25
10,ASALGCS,> 27
11,SAAARHH,1.39
12,PVSHAPQ,> 49
13,SATAHHH,1
14,PSSTTLQ,112
15,TTYEVPG,> 23
16,AWGDTSR,2.22
17,ASSGYPT,1.88
18,SPRAICQ,> 124
19,PSSHQKS,20
20,NESNVKI,1.5
21,LREVQAK,1.36

# From the supplement of paper PMC10185492
